SMILES strings stand for the structures.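 Grown in 96-well plates, cells were treated for 48 hours with each compound at five concentrations. Insufficient inhibition: endpoint recorded as highest concentration tested. At the GI50, growth is halved.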 Active and inactive are the calls of the source. No stated cut-off is given here; in the data, active = GI50 up to about 1.1 µM and inactive = higher. Bounds are passed on as bounds.

The subject of the experiment is NCI-H322M. Briefly: inhibition of tumour cell growth, NCI panel, 48 h.
With `O=C(O)c1cc(CCc2ccc(O)c(O)c2)ccc1O`, the GI50 was inactive: > 100 µM.

For the molecule `CN(C)c1ccc(/C=C/c2ccc3ccccc3[n+]2C)cc1`, the GI50 was inactive: 4.73 µM. In the case of `CC(C)C(C/C=C1\CC(CO)(COC(=O)C(C)(C)C)OC1=O)C(C)C` (stereo not drawn), the GI50 was inactive: 11.7 µM.

With `Nc1nc(CCl)nc(Nc2ccccc2)n1`, the GI50 was inactive: 30.1 µM. Consider `CC(CCc1nc2ccccc2s1)(c1ccc(O)cc1)c1ccc(O)cc1`, for which the GI50 was inactive: 17.7 µM. To `CCNC(=O)c1c(O)nc2ccccc2c1O` belongs inactive: 94 µM. Turning to `NCCc1c[nH]c2ccc(OC(=O)C(=O)O)cc12`, the GI50 was inactive: > 100 µM. Consider `O=C1C=C(O)c2nc(O)ccc2C1=O`, for which the GI50 was inactive: > 100 µM. On to `O=P(O)(O)CN1CCNCCN(CP(=O)(O)O)CCNCC1`, for which the GI50 was inactive: > 100 µM. Turning to `CC[N+]1(C)CCC(O)(c2ccc(OC)cc2)C(C(=O)c2ccc(OC)cc2)C1` (stereo not drawn), the GI50 was inactive: 16.7 µM. For the molecule `Cc1ccc(Cc2c(=O)[nH]nc3ccccc23)cc1`, the GI50 is inactive: 71.1 µM. Turning to `CC(C)(Cl)C(Br)CC/C(CBr)=C(/Cl)CCl.CC(C)(Cl)C(Br)CC/C(CBr)=C(\Cl)CCl` (stereo not drawn), the GI50 is inactive: 5.66 µM.

On to `COc1ccc2c(c1)C(=O)CC1c3cnccc3C(=O)N21` (stereo not drawn), for which the GI50 was inactive: > 100 µM. With `O=C1CSC2(CC(/C=C/c3ccccc3Br)=NN2c2cccc(S(=O)(=O)O)c2)N1c1nc2ccccc2s1` (stereo not drawn), the GI50 is inactive: > 100 µM. In the case of `Nc1ccc2[nH]c3c(-c4ccccc4)nccc3c2c1`, the GI50 was inactive: > 75.7 µM.

As for `O/N=C1\CSc2ccccc2C1`, the GI50 is inactive: > 100 µM. As for `O=C(/C=C/c1cc(F)ccc1F)OCCc1ccccc1`, the GI50 was inactive: > 100 µM. The figure for `CNCCCNC(=S)Cn1cc(C)c(=O)[nH]c1=O` is inactive: > 54.3 µM; for `CCOC(=O)C(NC(=O)c1ccccc1)(Nc1ccc(S(=O)(=O)Nc2cc(C)on2)cc1)C(F)(F)F` (stereo not drawn) it is inactive: > 100 µM; for `N#Cc1c2c(c(N3CCOCC3)n3c1nc1ccccc13)CCCC2` it is inactive: 17.2 µM.

Regarding `O=C(c1cccs1)N(C(=O)N1CCN(c2ccccc2)CC1)S(=O)(=O)c1ccccc1`, the GI50 was inactive: 40 µM. For `CC(C)(C)OC(=O)N1CCCC1C(=O)NCCNc1ccc(NCCNC(=O)C2CCCN2C(=O)OC(C)(C)C)c2c1C(=O)c1ccccc1C2=O` (stereo not drawn), the GI50 was inactive: 16 µM. As for `COc1cc(-c2cc(=O)c3cc4c(=O)cc(-c5cc(OC)c(OC)c(OC)c5)oc4cc3o2)cc(OC)c1OC`, the GI50 is inactive: 75.7 µM. To `COc1cc(C(=O)Nc2c3ccccc3nc3ccccc23)cc(OC)c1OC` belongs inactive: > 100 µM; to `Cc1nc(C(N)=S)sc1C(=O)CC(=O)C(=O)Nc1ccc(Br)cc1`, inactive: > 100 µM; to `CN(C)CCCNc1ccc([N+](=O)[O-])c2nc3ccccc3c(N)c12`, active: 0.444 µM.

For the molecule `CCOC1C=CC(=O)C(CO)O1` (stereo not drawn), the GI50 was inactive: 18.3 µM. On to `O=C(NC1C=Nc2ccc([N+](=O)[O-])cc2NC1=O)c1cc(Cl)cc([N+](=O)[O-])c1` (stereo not drawn), for which the GI50 was inactive: > 100 µM. For the molecule `O=C(Cn1ccnc1[N+](=O)[O-])c1ccc(F)cc1`, the GI50 is inactive: > 100 µM. On to `CCN(CC)C(=O)c1c(N2CCOCC2)cc(N(CC)CC)oc1=O`, for which the GI50 was inactive: > 100 µM.

For the molecule `CC(=O)c1sc(=N)n(-c2c(C)cccc2C)c1C`, the GI50 was inactive: > 100 µM. With `O=c1[nH]nc(-c2ccccc2)n1/N=C/c1ccc([N+](=O)[O-])o1`, the GI50 was inactive: 7.35 µM. On to `O=C(O)CCC(=O)OC1N=C(c2ccccc2Cl)c2cc([N+](=O)[O-])ccc2NC1=O` (stereo not drawn), for which the GI50 is inactive: > 100 µM. On to `C[C@@]1(O)C2C3CC4C5C3C1[C@](O)(C42)[C@H]5Br` (stereo partly drawn), for which the GI50 was inactive: > 100 µM. With `C[C@H](NC1=C(Cl)C(=O)c2c(O)ccc(O)c2C1=O)C(=O)Nc1ccc([N+](=O)[O-])cc1`, the GI50 was inactive: 3.09 µM. As for `CCOC(=O)C1=C(Nc2ccc(Cl)c(Cl)c2)OC/C1=N\NC(=O)Cc1ccccc1`, the GI50 is inactive: > 100 µM. The figure for `O/N=C1/C(=C/c2ccc(Oc3ccccc3)cc2)CCCC1C(NO)c1ccc(Oc2ccccc2)cc1` (stereo not drawn) is inactive: 95.9 µM. With `Fc1cc(-c2cc(-c3ccccc3)n[nH]2)c(Cl)cc1Cl`, the GI50 was inactive: > 100 µM.

With `c1ccc(C(NCC2CCO2)(c2ccccc2)c2ccccc2)cc1` (stereo not drawn), the GI50 is inactive: 16.1 µM. `COc1ccc(C#CC(=O)O)c(OC)c1`: the GI50 was inactive: > 100 µM. The figure for `CCOC(=O)/C(C#N)=C/c1ccc2c(-c3c(OCC)ccc4cc(/C=C(\C#N)C(=O)OCC)ccc34)c(OCC)ccc2c1` is inactive: > 100 µM; for `O=C(O)C1=CCCc2ccc3ccccc3c21` it is inactive: > 100 µM. Take `CC(O)C(NC(=O)C(CS)NC(=O)C(CO)NC(=O)C(CCCCN)NC(=O)C(Cc1c[nH]c2ccccc12)NC(=O)C(Cc1ccc(O)cc1)NC(=O)C(CS)NC(=O)C(N)Cc1ccccc1)C(N)=O` (stereo not drawn): the GI50 is inactive: > 25 µM. For the molecule `CSC1=N/C(=C\c2ccco2)C(=O)N1CN1CCCCC1`, the GI50 is inactive: > 100 µM. On to `O=C1c2ccccc2-c2nc(/C=C/c3ccccc3)cc3c2c1nc1ccccc13`, for which the GI50 is inactive: 31.8 µM. On to `Cn1c(=O)c2c(nc3sc4nc5ccccc5nc4n32)n(C)c1=O`, for which the GI50 is inactive: > 100 µM. To `C=C(C)C(=O)OC1C(C(C)CCCO)=C(CO)CC2OC(=O)C(=C)C21` (stereo not drawn) belongs inactive: 19.5 µM; to `COC1CC(n2cc(F)c(N)nc2=O)OC1CO` (stereo not drawn), inactive: > 100 µM. The figure for `O=S(=O)(O)c1cc(S(=O)(=O)O)c2cc(/N=N/c3c(O)ccc4ccccc34)ccc2c1` is inactive: > 100 µM; for `O=c1c2c3c(sc2nc2n1N=CN(c1ccc(Cl)cc1)C2)CCCC3` it is inactive: 94 µM.

In the case of `COc1cccc2c1OC(c1ccc(Cl)cc1)C([N+](=O)[O-])=C2` (stereo not drawn), the GI50 is inactive: 4.85 µM.

Take `O=NN1CCNC1Cc1ccccc1` (stereo not drawn): the GI50 was inactive: > 100 µM. For `CC1=C[P+](c2ccccc2)(c2ccccc2)c2ccccc2O1`, the GI50 is inactive: 22.9 µM. `Cc1ccccc1CN1CC=c2ccccc2=N1`: the GI50 was inactive: > 100 µM.

Turning to `Cc1cccc2ns[s+]c12`, the GI50 is inactive: > 100 µM. Consider `O=C(CCCN1CCC2(CC1)OC(=O)N(c1ccccc1)C2=O)c1ccccc1`, for which the GI50 was inactive: > 100 µM. To `O=C1OI(C#Cc2ccccc2)c2ccccc21` belongs inactive: 10.3 µM; to `Nc1nc(N)nc(-c2cnc3ccccc3c2)n1`, inactive: > 100 µM; to `COc1cc(/C=C/C(=O)OC2C(O)C3CC(OC(=O)c4cc(OC)c(OC)c(OC)c4)CC2N3C)cc(OC)c1OC` (stereo not drawn), inactive: > 50 µM.

Regarding `CSCSCC(N)CO.Cc1[nH]c(=O)[nH]c(=O)c1/C=C/C(=O)O`, the GI50 was inactive: > 625 µM. Consider `C(=N\c1cc2cc(Sc3ccccc3)ccc2[nH]1)/c1ccccc1`, for which the GI50 is inactive: > 12.5 µM.

As to `COC(=O)C1OC(Oc2cc(O)c3c(=O)cc(-c4ccc(O)cc4)oc3c2)C(O)C(O)C1O` (stereo not drawn), the GI50 is inactive: > 100 µM. Consider `CC12OC3(C(O)C1O)C(C(=O)O[C@H]3CO[Si](C)(C)C(C)(C)C)C2S(=O)(=O)c1ccccc1` (stereo partly drawn), for which the GI50 was inactive: 79.8 µM.

Consider `Cc1cc(C)nc(NS(=O)(=O)c2ccc(NC(=O)c3ccc(Cl)c4c(Nc5ccc(S(=O)(=O)N=C(N)N)cc5)c5ccccc5nc34)cc2)n1`, for which the GI50 is inactive: 27.9 µM. On to `O=C1c2ccccc2C(=O)c2[nH]c(=O)c(/C=N/Nc3ccc([N+](=O)[O-])cc3)nc21`, for which the GI50 is inactive: 1.72 µM. As for `CC[C@@H]1CC[C@@H]2[C@H](CC[C@]3(C)[C@@H](OC(C)=O)CC[C@@H]23)[C@H]1COC(C)=O`, the GI50 is inactive: 47.1 µM. In the case of `c1csc(-c2ccc(-c3cccs3)c3nsnc23)c1`, the GI50 was inactive: > 70.3 µM. As to `CC(=O)Nc1ccc2c3c(cc(O)c2c1)N(C(=O)CCCCC(=O)Nc1ccc2c4c(cc(O)c2c1)N(C(=O)OC(C)(C)C)CC4CCl)CC3CCl` (stereo not drawn), the GI50 is inactive: 4.98 µM.

`COc1ccc(/C(Cl)=C(\C#N)c2ccc(OC)c(OC)c2)cc1OC`: the GI50 is inactive: > 100 µM. Consider `CN(C)CCCC12CCCCC1=Nc1ccccc12` (stereo not drawn), for which the GI50 is inactive: > 100 µM.

In the case of `CC(=O)/C=C/C1=C(C)CCCC1(C)CC(C)C` (stereo not drawn), the GI50 was inactive: > 100 µM. On to `CCCC(=O)NC(Nc1cc(C)ccn1)(C(=O)OCC)C(F)(F)F` (stereo not drawn), for which the GI50 is inactive: > 100 µM. On to `Nc1ncnc2c1ncn2C1OC(C(=O)OCCO)C(O)C1O` (stereo not drawn), for which the GI50 was inactive: > 100 µM. Turning to `COc1cc2c(cc1OC)C(N(C)C)C(c1ccccc1)=C2Cl` (stereo not drawn), the GI50 was inactive: 26.1 µM. With `OC(c1ccoc1)c1cc2ccccc2s1` (stereo not drawn), the GI50 was inactive: > 10 µM. Take `FC(F)(F)C1(C(F)(F)F)OC(Cl)(Cl)C(Cl)(Cl)O1`: the GI50 is inactive: > 10 µM. The figure for `Nc1ccccc1CCCC(=O)O` is inactive: > 100 µM; for `C#C[C@]1(O)CC[C@H]2[C@@H]3CCC4=C/C(=N/NC(=O)c5cccc6cc7ccccc7nc56)CC[C@@H]4[C@H]3CC[C@@]21CC` it is inactive: > 100 µM; for `NCCCN(CCCCN(CCCN)C(=O)OCc1ccccc1)C(=O)OCc1ccccc1` it is inactive: > 100 µM. Take `COC(=O)C1CCC2(C)[C@H](CCC3O[C@]32C)[C@@]1(C)CC(=O)c1ccoc1` (stereo partly drawn): the GI50 was inactive: 91.2 µM. Turning to `O=C(O)c1ccc(C2C(=O)N[C@@H]3CCC[C@H]23)cc1` (stereo partly drawn), the GI50 is inactive: > 100 µM. With `CCc1cc2c(cc1O)CC[C@@H]1[C@@H]2CC[C@]2(C)[C@@H](O)CC[C@@H]12`, the GI50 was inactive: 10.4 µM. For `COc1ccc(-c2cc(=O)c3c(O)cc(O)cc3o2)cc1OC`, the GI50 is inactive: > 100 µM.

Values taken from ChEMBL document CHEMBL1201862, “PubChem BioAssay data set” (2004).
